# Test results reported in the supplement of paper PMC11417369.
# ± gives the standard deviation of the averaged measurements. The list shows a part of the results.
# Test system: PfAP2-LT AP2 domain (GST-tagged)
# Test: gcPBM binding intensity (ln(normalized median fluorescence intensity)); higher = stronger DNA binding
# Outline: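 The highest Masliner-normalised natural-log median intensity across replicate spots of either probe orientation is reported as binding intensity. GST-tagged P. falciparum DNA-binding domains expressed in E. coli were applied for 1 h to an Agilent 4 × 180k array of primer-extended double-stranded 36-bp intergenic genomic probes plus negative controls, and bound protein was detected with Alexa488 anti-GST antibody and scanned at 488 nm.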
row,Sequence,gcPBM binding intensity (ln)
1,ATTTTTTTTTTTATAGTGGATCCACATTTGCCATTT [CACACA_negctrl_site1106],8.87 ± 0.52
2,TATAAAAAAATATTATAATATATATATATATATATA [XGTACX_negctrl_site41],8.99 ± 0.014
3,AATATTTATATTTACACACACATAATACATCTATGT [CACACA_site4187],9.44 ± 0.26
4,AAAAAAGAACGCATAGTGCATATCTAAAAGATTTTT,8.94 ± 0.36
5,GATAAATTAAGACACACACACATATATTTATTTATA [CACACA_site7789],9.64 ± 0.23
6,TAGTATTAGATATATACACACATATATACCTATAGA [CACACA_site7083],8.97 ± 0.31
7,TATATATATATATATACACACATATATACCTATATA [CACACA_site6085],9.85 ± 0.18
8,CATGTTCATCAGAACGCACACATAATGGTTTACTTA [CACACA_site898],9.03 ± 0.38
9,AAGAAAAAAAAAATTACACACTGCGCACATACACAA [CACACA_site6721],9.08 ± 0.35
10,ACTTATATAAAACATTAACACACAAAGAAAAAAAAT [CACACA_site8529],9.11 ± 0.47
11,GATACACCAAATAACTGTACGCACGTGTAATATTAA [XGTACX_site3441],9.08 ± 0.48
12,AGTAACTAATTAAATGCATGTCGATATATATTATAT [TGCATGCA_site1038],8.92 ± 0.4
13,GTGTATATGTATATATGTACATAAATTTTTTTTTTT [XGTACX_site7083],8.69 ± 0.35
14,CCTAGAAAAGTATATACACACGCGCAAAATAAAATT [CACACA_site1413],9.35 ± 0.26
15,TTAACCGGTTTATGGGTGCACATTCTTCTTAAATAA [GTGCAC_site9928],8.56 ± 0.46
16,AAAAAAAAGTTAAGCACACACATGAATAAATAATAC [CACACA_site840],9.34 ± 0.46
17,TATAAAAAAAACAAAAAAAAAAAAAAACAAAAAAAA [TGCATGCA_negctrl_site514],8.44 ± 0.45
18,TTTTTTTGTTGTTGTTGTACGATATTTTCCTTATCA [XGTACX_site2375],9.07 ± 0.52
19,TGTATAAAAGTTTATACACACATTTGATATATTTCA [CACACA_site6606],8.81 ± 0.37
20,TTTTATTTTTATTATACACACGCTTAATAAATGCAT [CACACA_site1751],8.97 ± 0.42
21,GGGAATATAAGTACACGATAATATGTGATAAGGTCT [CACACA_negctrl_site1502],9.31 ± 0.46
22,GGGGGGATGAGATATTGTACTTTTTAGGAAAGTGTA [XGTACX_site2835],9.39 ± 0.37
23,AAAGATAAAATATTATGTACATATATATATATATAT [XGTACX_site5079],9.29 ± 0.27

row,Sequence,gcPBM binding intensity (ln)
1,CATTTAACATAAATTAAACACACAATATAATACATT [CACACA_site8333],8.85 ± 0.42
2,AATAATAATACTAATCGTACGCATATTTTTCAAACC [XGTACX_site8055],8.94 ± 0.26
3,ATTAAATACATTAACACACACACAAATATATACATA [CACACA_site2881],9.68 ± 0.16
4,AAAAAAATATATATATATATATATATATATATATAT [TGCATGCA_negctrl_site7],9.605 ± 0.064
5,AAATATAATAATATATGTACATATATATATATATAT [XGTACX_site6980],9.31 ± 0.31
6,TATACATATTATATATGTACACATATTATATGTATA [XGTACX_site5851],8.75 ± 0.34
7,TATGTATTAAATTTTACACACATGATTCTCTATATG [CACACA_site8720],9.09 ± 0.45
8,TCAACAAATAAACTTTGTACATATATACAAAATATA [XGTACX_site4447],8.54 ± 0.47
9,AATTTAAAAGCTTGTGGTACTTTTGCTCTTCCTTTG [XGTACX_site3148],8.85 ± 0.66
10,ATACAAAAAAGAAGGACACACAGAAGTAACATGTTA [CACACA_site3074],9.27 ± 0.54
11,TAACATGATATATAATGTACATATAAGATATTTATA [XGTACX_site4383],8.79 ± 0.45
12,TTTAAAAAAAAAAAAAAAAATTAAATGAATTATTAA [CACACA_negctrl_site1121],7.81 ± 0.64
13,ATGAATTATATATTATGTACATATAATTAAAATATA [XGTACX_site7140],8.52 ± 0.5
14,CGTGGGAGCGGACACACACACACACCCATATATATA [CACACA_site4340],9.86 ± 0.41
15,TTAAAAGATATTACATGTACATATTCAATATATGTA [XGTACX_site5895],8.62 ± 0.41
16,ACAAATAAATAAAAATGTACAAATGAATACATCTTA [XGTACX_site3780],8.77 ± 0.54
17,TTTTTTTAAAAAAACAAAAAAAAAAAAAATATAAAA [TGCATGCA_negctrl_site511],8.14 ± 0.48
18,TACATCGGTATATAAACACACAACAAAAATGCTTAC [CACACA_site5983],9.14 ± 0.42
19,AAAATAATTAAAAAAAGTACTCGTAATATAAATATA [XGTACX_site4967],9.1 ± 0.38
20,AATAATGTATAATGATGTACAAAAAAGGAAGACATA [XGTACX_site2474],9.22 ± 0.33
21,ATATTTTGTAATATTTGTACATATATTATACATATA [XGTACX_site963],8.84 ± 0.39
22,TTTTTTTTGCGTACAGTGCAAATTTATTTACTATTC,8.82 ± 0.54
23,TATGAAAATTAAGTTTGTACACAAGTGGAAAAAAAA [XGTACX_site6129],8.69 ± 0.51

row,Sequence,gcPBM binding intensity (ln)
1,TACATTTATAATAATACACACATAAATTTACATTTT [CACACA_site3463],8.86 ± 0.45
2,AAATTAAATAAATTTACACACTAAAAGTTACCTATA [CACACA_site6623],8.62 ± 0.4
3,TTTGTTATTTATTAGTGTACAAAAAAGCATTTCAAA [XGTACX_site8729],8.37 ± 0.42
4,AAAAAAAAAAAAAAAAAAAAAAAAAAAAAAAAAAAT [CACACA_negctrl_site882],8.88 ± 0.28
5,TATTCTATAAATATATTTTTTTAATTTTTTATTTTA [CACACA_negctrl_site307],8.15 ± 0.57
6,AGGTGTATCATAAAATGTACATACATACATACATAA [XGTACX_site4479],8.95 ± 0.47
7,TTGTAATTCATTCAAATATAAAATAAATAAATATGA [CACACA_negctrl_site349],8.29 ± 0.4
8,AAAATGTGCTTTTCAGTGCAATTTTTTTTGTAATAA [GTGCAC_site9566],8.34 ± 0.35
9,TATTATTATTTTTTATGTACTAACGACAAAAATATT [XGTACX_site252],8.48 ± 0.4
10,TATGTAAAAAGAGAAAAAAAAAAGAACGATAATTTC [CACACA_negctrl_site946],8.49 ± 0.54
11,ATATAAGAATTTAAGAGTACATTCACTTCAAATTTA [XGTACX_site2115],8.48 ± 0.5
12,ATATAATATATTTTCACACATATTTTATGATGATAA [CACACA_site5614],8.68 ± 0.41
13,ATAACATAACATAATACACACATATAAAAAAGAAAT [CACACA_site3028],9.37 ± 0.34
14,AAATTTAATTTTATATCACACATTAAATTTTAATGG [CACACA_site4251],8.61 ± 0.36
15,AAAAAAAAAAAAAAAGGTACAGTAAAAAATTCCTCT [XGTACX_site5947],8.47 ± 0.54
16,TTTTAAAAAAATAAATAAATAGAAAAAAAAAATAAA [TGCATGCA_negctrl_site579],8.2 ± 0.52
17,GGATATATTTTATGTACACACATATATAACGGATAT [CACACA_site4847],9.11 ± 0.34
18,TATTATGACTTAAGTTGTACTGTTGAAAGAAGAAAA [XGTACX_site2985],8.48 ± 0.44
19,ATAATCCTTAAACACACACACACACTAATAAATAAA [CACACA_site8052],10.1 ± 0.25
20,TTGTTTCCTTAATATTCACACACATATATATAATAT [CACACA_site8553],9.23 ± 0.35
21,AAAAGTTATAGACACACACACATATAAATATAGATT [CACACA_site6617],9.57 ± 0.3
22,ATAAAAATTAAAGAATGTACACATATAATATATGTA [XGTACX_site8735],8.65 ± 0.45
23,TATAAATGTATACAAGTGCATATTATTCACACATAA,8.84 ± 0.45

row,Sequence,gcPBM binding intensity (ln)
1,GTATTATACCATAATGCATGTTAACTTCAAAAGAAA [TGCATGCA_site839],8.67 ± 0.48
2,GAAATTATTATATAAACACACATTTATTTTATTTTA [CACACA_site1957],8.56 ± 0.44
3,CGTATAAATAAATACACACACATATAAATATGTAAA [CACACA_site6236],9.3 ± 0.38
4,TAATATATTGTAGATGCATGCATTAACTATTACAAA [TGCATGCA_site190],8.89 ± 0.4
5,TATCAATGGAAAATATATATTTGTATATATGTAATA [XGTACX_negctrl_site257],8.55 ± 0.49
6,TATAAAAATAATATTACACACATGTAAAATGTCGGT [CACACA_site3264],9.03 ± 0.42
7,AGCATTTATGAAAAATGTACACACATCAAATGCTTA [XGTACX_site8749],8.91 ± 0.42
8,ACACATGACATCCGTTGTACAATCATCATAAAAATG [XGTACX_site5397],9.01 ± 0.41
9,TACGTGAAATTATATACACACATAAATATGTCTGTA [CACACA_site3122],8.99 ± 0.39
10,AAGCTACACATAGATTATTATTAATTTAATGTATAT [CACACA_negctrl_site548],8.56 ± 0.38
11,ACAAGCTTTCATAAGGTGCAATGATTTAACAAAAAA [GTGCAC_site9726],8.53 ± 0.47
12,AATTATTAGCGTGGTGTGCACAAAATTATGGACACA,9.2 ± 0.51
13,TATATATTATACACGTGTACACATTATAACAATATA [XGTACX_site7799],8.98 ± 0.38
14,TTTCCCTTAAATTAATGTACATAAATTGAAAATACC [XGTACX_site1602],8.44 ± 0.35
15,TAAAATTTTTTTGTTTGTACATATATATATATAATA [XGTACX_site5609],8.52 ± 0.39
16,AAAAAAATAAATAAATACATACATATATATATGTAT [GTGCAC_negctrl_site510],8.69 ± 0.47
17,AAAAAAAAAAAACACACACACAAAAAAAAATATATA [CACACA_site1105],9.85 ± 0.54
18,TTGCCCCAGGAGTTCACACACATAATAGATTGTCAC [CACACA_site726],9.36 ± 0.4
19,AGCAACCCCCTAGCTACACACATATAGATATATATA [CACACA_site951],9.6 ± 0.2
20,TTTCTTATCAACCTTTTTTTTTTTTTTTTATTCTTA [TGCATGCA_negctrl_site162],8.46 ± 0.49
